Measured values reported in PubChem BioAssay AID1963576 (National Center for Advancing Translational Sciences (NCATS), 2024).
Among all 46,000 compounds or so, about 60 (0.1%) were called active. Not shown: some 3% with an inconclusive outcome. Calls come from the whole dose curve; as a rule, active = well fitted inhibition curve with a large enough effect; inconclusive = small, poorly fitted or top-dose-only effect; inactive = no such curve, though single readings can be large or run the other way. Some of the results follow.

experiment: Primary qHTS assay for Inhibitors of ovarian cancer metastasis using an organotypic tumor microenvironment (TME) model.; note: nearly all actives have a fitted effect of over 65% in size;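 for activity change, negative = inhibition: plate controls were DMSO wells for no effect and tomatine positive control wells for full effect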; details: SKOV3ip1-GFP adhesion/invasion on 3D omental model, fluorescence; series mostly up to 45.8 µM; activity change, negative = inhibition: at the top concentration
Method in brief: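 A 3D layer of primary human omental fibroblasts, mesothelial cells, fibronectin and collagen I, grown 48 hr, received SKOV3ip1-GFP cells in serum-free medium plus compounds at 0.36-46 umol/L. After 2 hr RT and 16 hr 37 C, fixed adherent GFP cells were counted; normalized to DMSO and tomatine.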

outcome, inactive:
Cc1ccc(Cl)cc1N1CCN(C(=O)Cn2cnc3sc(C)c(S(=O)(=O)N4CCC(C)CC4)c3c2=O)CC1
COC(=O)c1scc(-c2ccc(C)cc2)c1S(=O)(=O)N1CCN(c2ccc(C(C)=O)cc2)CC1
Cc1ccc(-n2c(=O)c3c(C)c(C)sc3n(CC(=O)NCc3ccccc3)c2=O)cc1C
CCOc1ccc(CCNC(=O)CCCn2c(=O)c3cccn3c3ccccc32)cc1
Cc1ccc(CNC(=O)CCCn2c(=O)c3ccccc3n(CC(=O)Nc3ccc(C)c(C)c3)c2=O)cc1
CCc1ccccc1NC(=O)CCNS(=O)(=O)c1ccc2c(c1)CCN2C(=O)C1CC1
Cn1c(=O)c2c(nc(SCC(=O)Nc3ccccc3F)n2Cc2ccc(Cl)cc2)n(C)c1=O
Cc1ccc(Cl)cc1NC(=O)C(C)n1nc(-c2ccccc2)ccc1=O (stereo not given)
Cc1ccc(-n2ncc3c(NCCC4=CCCCC4)ncnc32)cc1
Cc1c(C(=O)N2CCC(c3nc4ccccc4s3)CC2)oc2ccc(Cl)cc12
Cc1ccc(Cl)cc1NC(=O)Cn1c(=O)oc2cc(S(=O)(=O)N3CCCC3)ccc21
Cc1ccc(CN2C(=O)C3(c4ccccc42)N(c2cccc(F)c2)C(=O)CS3(=O)=O)cc1 (stereo not given)
COc1ccccc1N1CCN(CCCNC(=O)c2cnn(-c3cccc(Cl)c3)c2C2CCN(C(=O)OC(C)(C)C)CC2)CC1
Cc1ccccc1CN1CCC(CNc2ncnc3onc(-c4ccc(F)cc4)c23)CC1
COc1ccccc1C(=O)Nc1nc(-c2ccccc2)ns1
COc1ccccc1CNS(=O)(=O)c1cc2c3c(c1)CCN3C(=O)CC2
CCOc1ccccc1NC(=O)NCCn1c(=O)oc2ccc(C)cc21
COc1ccc(OC)c(CNC(=O)CCn2c(=O)c3cccn3c3ccc(F)cc32)c1
COc1ccc(Cn2c(C(=O)O)c(CNC3CCCCCC3)c3ccc(OC)cc32)cc1
CCC1=Nc2cc(C(=O)NC3CCCC3)ccc2Sc2ccc(Br)cc21
Cc1ccccc1-c1nc(CS(=O)(=O)CC(=O)NCc2cccc(Cl)c2)c(C)o1
COc1ccc(-n2ncc3c(NCCC4=CCCCC4)ncnc32)cc1
Cc1noc(/C=C/c2ccco2)c1S(=O)(=O)N1CCC(C(=O)Nc2ccc(F)c(Cl)c2)CC1
Cc1ccc2c(=O)c(C(=O)c3cccc(Cl)c3)cn(CC(=O)NCc3ccc(F)cc3)c2n1
CCCCN1CCCc2cc(CN(CCCN3CCOCC3)C(=O)Nc3ccc(OCC)cc3)ccc21
O=C(NCc1cccc(Cl)c1)C(=O)Nc1ccc2nc3n(c(=O)c2c1)CCCCC3
Cc1ccccc1NS(=O)(=O)c1nnc(NC(=O)c2ccccc2C)s1
Cc1ccc(NC(=O)N2CCc3cc(S(=O)(=O)N4CCC(C)CC4)ccc32)cc1C
Cc1ccc(-c2nc(-c3cc4cccc(OCc5cccc(C)c5)c4oc3=O)no2)cc1
CCN(CC)c1ccc(C(=O)N2CCC(c3c[nH]c4ccccc34)(c3c[nH]c4ccccc34)CC2)cc1
Cc1ccc(CNC(=O)c2ccc(-n3cnc4cccnc43)cc2)cc1
O=C(c1ccc2c(c1)N(Cc1ccccc1F)C(=O)c1ccccc1S2=O)N1CCN(c2ccccc2)CC1 (stereo not given)
CCc1ccc(NC(=O)Cn2c3ncccc3c(=O)n2-c2ccc(C)c(C)c2)cc1
Cc1cccc(NC(=O)CSc2nc3c([nH]c4ccccc43)c(=O)n2C)c1C
CCOc1ccc(S(=O)(=O)N2CCN(c3c(C)cccc3C)CC2)c2ccccc12

Activity change, negative = inhibition, inactive:
COc1ccc(C2=CC(c3ccccc3Cl)n3nc(-c4ccc(Cl)cc4)nc3N2)cc1 (stereo not given) 5.11%
CCOC(=O)c1c(C)oc2nc(C)nc(NCc3ccc(F)cc3)c12 -6.49%
CCN(CC)CCCCNc1ncc2c(n1)N(C)C(=O)N(c1c(Cl)c(OC)cc(OC)c1Cl)C2 -3.35%
COc1ccc(C(=O)Nc2nnc(SCc3cc(=O)c4cc(C)cc(C)c4[nH]3)s2)cc1 -9.96%
Oc1c(C(c2ccccc2F)N2CCN(Cc3ccccc3)CC2)sc2nc(-c3ccco3)nn12 (stereo not given) -5.32%
CCNC(=O)c1c(NC(=O)Cc2coc3cc(C)cc(C)c23)sc2c1CCCC2 -14%
COc1ccccc1N1CCN(S(=O)(=O)c2c(C)sc3ncn(CC(=O)N(C)c4ccc(Cl)cc4)c(=O)c23)CC1 -6.49%
COc1ccc(C(=O)OC2=C(C(=O)c3ccccc3)N(C)S(=O)(=O)c3ccccc32)cc1OC -7.28%
COCCn1c(=NC(=O)c2ccc3c(c2)OCCO3)sc2cc(C(=O)OC)ccc21 7.28%
CCOc1ccccc1N(C)C(=O)C1CCCN(c2ncnc3c2nc2n3CCCCC2)C1 (stereo not given) -0.347%
Cc1ccc(-n2ncc3c(Nc4cccc(C)c4C)ncnc32)cc1 -3.28%
Cc1ccc(NC(=O)c2cc(-c3ccc(Br)s3)nc3ccccc23)cc1F -2.45%
Nc1ccc(S(N)(=O)=O)cc1 32.6%
Cc1cc(C)c2c(=O)nc(SCc3ccccc3C)n(C3CC3)c2n1 -4.99%
Cc1ccc2c(CC(=O)Nc3ccc(S(=O)(=O)N4CCCCC4)cc3)coc2c1 -4.43%
CCOc1ccc(CNC(=O)Cn2cc3c(n2)-c2c(oc(C(=O)N4CCOCC4)c2C)CC3)cc1 -4.2%
CC(=O)Nc1ccc2nc(-c3cc(C)ccc3C)[nH]c2c1 -17.9%
CCc1cccc(-n2nnc(-c3nsc(NC(=O)c4cccs4)n3)c2C)c1 -0.0448%
Cc1ccc(OCc2ccc(-c3nc(C#N)c(NCc4cccnc4)o3)o2)cc1 0.551%
CCCCN(CC)CCNC(=O)c1cn(C)c(=O)c2c1c1ccccc1n2C 5.09%
COc1cc(NC(=O)NC(C)c2c(-n3cccc3)sc3c2CCCC3)cc(OC)c1OC (stereo not given) -14.2%
CCOC(=O)c1c(C)c(-c2ccccc2)n(CC(=O)Nc2cc(C)ccc2OC)c1C -6.46%
COc1ccccc1C(=O)NCCn1cc(SCc2ccccc2Cl)c2ccccc21 20.7%
COc1ccc(-c2nc(-c3ccccc3)c(-c3ccc(O)cc3)[nH]2)cc1 6%
CCc1ccc(-c2nn(CC(=O)NC3CCCC3)c3c2cnc2ccc(F)cc23)cc1 9.21%
COC(=O)c1ccccc1NC(=O)Cn1nnc2sc(-c3ccccc3)cc2c1=O -4.66%
Cc1ccc2sc(N3CCN(C(=O)CCS(=O)(=O)c4ccc(F)cc4)CC3)nc2c1C -3.62%
O=C(/C=C/c1ccc(F)cc1)Nc1nc2n(n1)C(c1ccc(Cl)cc1)C=C(c1ccccc1)N2 (stereo not given) 0.615%
Cc1ccc(N2CC(C(=O)Nc3ccc(Br)cc3)CC2=O)cc1 (stereo not given) 4.2%
C=Cc1ccc(CN2C(=O)N(c3cccc(Cl)c3)S(=O)(=O)c3ccccc32)cc1 -7.49%
COc1ccc(C(=O)n2nc(-c3ccco3)nc2NCc2cccs2)cc1 0.738%
COc1cc(Nc2nc3ccccc3c3nnc(C)n23)cc(OC)c1 -8.35%
CC(C)C[C@H](NC(=O)c1cc2ccccc2s1)C(=O)N1CCN(C(=O)[C@H](CO)NS(=O)(=O)c2ccc(Cl)cc2Cl)CC1 2.64%
COc1ccc(C)cc1Nc1c2c(nc3nc(-c4cccs4)nn13)CCCC2 2.48%
COc1cccc(CN2CCc3nc(SCC(=O)Nc4ccccc4)[nH]c(=O)c3C2)c1 8.13%
O=S(=O)(NCCS(=O)(=O)N1CCN(c2ccccc2F)CC1)c1ccc(Cl)cc1 -0.87%
CCN(C(=O)c1cc2c(s1)-c1ccccc1OC2)c1cc(Cl)ccc1OC -25.2%
CCOC(=O)c1ccc(Nc2ncnc3c2cnn3-c2cccc(Cl)c2)cc1 12.6%
CC1Cc2cc(S(=O)(=O)NCc3ccccc3Cl)ccc2N1C(=O)C1CCC1 (stereo not given) -21.9%
CCOC(=O)c1ccc(NC(=O)c2ncn(-c3ccccc3)n2)cc1 -4.2%
CC(NC(=O)Nc1cc(Cl)ccc1Cl)c1c(-n2cccc2)sc2c1CCCC2 (stereo not given) 11.2%
COc1ccc(N2CCN(C(=O)CCn3c(=O)c4cccn4c4cccnc43)CC2)cc1 1.26%
Cc1ccc(NC(=O)/C(C#N)=C/c2cc(C)n(-c3ccc(F)cc3)c2C)cc1C -4.36%
CCc1c(C)nc2nncn2c1Nc1ccc(C(C)C)cc1 0.317%
O=C(Cc1ccccc1)Nc1sc2c(c1C(=O)Nc1ccc(Cl)cc1)CCCC2 0.835%
O=C(NCCc1csc(-c2cccc(F)c2)n1)c1cccs1 -6.07%
CCOc1ccc(NC(=O)c2ccc(-c3nc(COc4ccccc4)c(C)o3)cc2)cc1 -3.18%
N#C/C(=C\c1ccc(Cl)cc1)c1nc2ccccc2[nH]1 16.9%
CCOc1ccccc1NC(=O)C1CCN(S(=O)(=O)c2ccccc2)CC1 -7.34%
COc1ccc(-c2nc(SCC(=O)Nc3ccc4c(c3)OCO4)c(-c3ccc(OC)cc3)[nH]2)cc1 -12.1%
CN(C(=O)CSc1nc2c(c(=O)[nH]1)CCCC2)c1ccccc1 0.683%
CCOC(=O)c1ccc(NS(=O)(=O)c2ccc(Br)s2)cc1 1.06%
COc1ccccc1NC(=O)CSc1oc(-c2cccs2)nc1S(=O)(=O)c1ccc(Br)cc1 1.43%
CC(NC(=O)Nc1ccccc1C(F)(F)F)c1c(-n2cccc2)sc2c1CCCC2 (stereo not given) -0.164%
COc1ccccc1CNC(=O)Cn1ncc2c3ccccc3n(Cc3ccccc3C)c2c1=O -3.55%
COc1ccc(NCc2cc3cc4c(cc3n(CC(=O)Nc3ccc(C)cc3)c2=O)OCO4)cc1 22%
Cc1cc(C)cc(OC(=O)c2snnc2C)c1 -1.39%
CCOc1ccccc1Nc1cc(-c2ccccc2)nc(C)n1 -11.3%
COc1ccc(NC(=O)CSc2nnc(-c3cccs3)o2)cc1 20.1%
COc1cc(Cl)c(C)cc1NC(=O)CSc1ncc(S(=O)(=O)c2ccc(C(C)(C)C)cc2)c(=O)[nH]1 -2.01%
